The source gives no read counts; variants with many changes may rest on few reads.
B1: LINE1-mini (parent)
chain: GGCAGAGCUCAACACAGCGUGGCAAAGUGGCUGUGGCUAGACUGCC

Variants of: B1
Test: self-cleavage, relative activity (ratio to wild type); higher = more cleavage; in vitro, sequencing; the parent is a self-cleaving ribozyme
Work on G7C G27A U32C G36C yielded a self-cleavage of 0.02. G7C C10A G21U showed a self-cleavage of 0.02. For G7C C10A G21A, the self-cleavage was 0.02. G7C C8G C10G A12U A26C G40U gave a self-cleavage of 0.02. G7C A16C C31A showed a self-cleavage of 0.04. With G7C A11G U34C G44U the self-cleavage was 0. Work on G7C C8A G19C G27U G30A C42U yielded a self-cleavage of 0.2. G7C C8U C37A gave a self-cleavage of 0.01. In the case of G7C C10G C23U G27C G30A, the self-cleavage is reported as 0.01. In the case of G7C G17U C18A G22A G30U, the self-cleavage is reported as 0.02. With G7C A16C U20G the self-cleavage was 0.09. G7C G17U C18U G19C C37A G44A showed a self-cleavage of 0.02. G7C A14C U20C C46U showed a self-cleavage of 0.02. G7C C18A U38C showed a self-cleavage of 0.02. With G7C C13G U34A U38C the self-cleavage was 0.1. Work on G7C C18A U32A C42U yielded a self-cleavage of 0.03. G7A G36C C37G G40C gave a self-cleavage of 0.1. With G7C C13G G30U the self-cleavage was 0.1. G7C A16U G35U gave a self-cleavage of 0.09. For G7C C15A A26C, the self-cleavage was 0.09. Work on G7C C15A A26U yielded a self-cleavage of 0.06. With G7C C15G C37U the self-cleavage was 0.05. In the case of G7C G22C C46A, the self-cleavage is reported as 0.05. G7C G40U A41G showed a self-cleavage of 0.08. For G7C G17A G21U, the self-cleavage was 0.16. With G7C C8A A11C U20G G33C the self-cleavage was 0.01. For G7C G30C C45A, the self-cleavage was 0.09. G7C C8G A24U A41U U43C showed a self-cleavage of 0.12. G7C C10A A12U G19A showed a self-cleavage of 0.01. With G7C A26C U43C the self-cleavage was 0.08. G7C C10U C23G U34G showed a self-cleavage of 0.04. For G7A U32G A39G, the self-cleavage was 0.11. With G7C A24U G33U the self-cleavage was 0.08. For G7C A11U G21C C23A, the self-cleavage was 0.03. For G7C G19U A26G A41G, the self-cleavage was 0.03. G7C G27U A39C U43C C46G gave a self-cleavage of 0.06. G7C A14C G22C C23U gave a self-cleavage of 0.01. Variant G7C A11G C18U G22U A25G G29C G30U C37A has a self-cleavage of 0.01. In the case of G7C A14G C37A A39C C46A, the self-cleavage is reported as 0.29. For G7C C10A A41U, the self-cleavage was 0.01. G7C C10G G19C gave a self-cleavage of 0.02. Work on G7C A11U A25U G27U yielded a self-cleavage of 0.02. In the case of G7C C15U U20A A25U G36A, the self-cleavage is reported as 0.01. Variant G7C C10A G44U has a self-cleavage of 0.05. Variant G7C G19C G29C has a self-cleavage of 0.03. G7C C8G A16C showed a self-cleavage of 0.01. G7C G17U G19C C37U C45U gave a self-cleavage of 0.01. Work on G7C C10A A14C G19A U28A yielded a self-cleavage of 0.01. Variant G7C C18G A24U U28A has a self-cleavage of 0.02. G7C C10G A14G A24G U38G gave a self-cleavage of 0.01. For G7C G29C C31U C42G, the self-cleavage was 0.05. For G7C G17U C18G A24C C42A U43G, the self-cleavage was 0.03. For G7C C31U U32C U38A, the self-cleavage was 0.04. For G7C C13A G35C G44U, the self-cleavage was 0.11. Work on G7A U34C G40C yielded a self-cleavage of 0.07. With G7C C13U G17U U28G C31U C45A the self-cleavage was 0.13. Work on G7C A11U G22U G27U yielded a self-cleavage of 0.01. For G7C A14G G19A C46A, the self-cleavage was 0.05. In the case of G7C G22C G33C C42U C45G, the self-cleavage is reported as 0.01. For G7C G19A C23G A26U C46U, the self-cleavage was 0.01. Variant G7C C8A A26U U34A C45U has a self-cleavage of 0.04. With G7C G17A A25U G27C G35A the self-cleavage was 0.05. Variant G7C C31G G36U has a self-cleavage of 0.14. G7C C37A G40A C46U showed a self-cleavage of 0.18. For G7C C13U U38A G40A, the self-cleavage was 0.06. With G7A U38A A41G the self-cleavage was 0.03. With G7C A12C G33U the self-cleavage was 0.03. In the case of G7C A12C G40U, the self-cleavage is reported as 0.06. With G7C C15A G17A the self-cleavage was 0.02. G7A U32C U38A U43C gave a self-cleavage of 0.15. Work on G7C A11G U43C yielded a self-cleavage of 0.01. G7C G30C G33A showed a self-cleavage of 0.09. G7A U9G C15U A24C gave a self-cleavage of 0.09. G7A U20A G29C G33U G36A gave a self-cleavage of 0.24. In the case of G7C C8G C10U, the self-cleavage is reported as 0.05. Variant G7C C10A A39U has a self-cleavage of 0.02. G7C G30A C37A showed a self-cleavage of 0.27. For G7C C10U G40A, the self-cleavage was 0.04. G7C C18U G36U G44C showed a self-cleavage of 0.11. With G7C C15A A39U the self-cleavage was 0.01. With G7C C15G G19A the self-cleavage was 0.03. G7C A11C G22A G27A G29C U43C showed a self-cleavage of 0.01. Variant G7A U34A A41G has a self-cleavage of 0.03. G7C A12G C23A G30A G36U gave a self-cleavage of 0.03. G7C A16G U20A A41G C45G showed a self-cleavage of 0.02. G7C G29U G44A gave a self-cleavage of 0.37. Variant G7C C13A A24C U28C has a self-cleavage of 0.02. Variant G7C C8U C45G has a self-cleavage of 0.79. Work on G7A U9A C10U C23U G27U yielded a self-cleavage of 0.03. For G7A U9G G30U C46U, the self-cleavage was 0.07. With G7C C15G A24U G36U the self-cleavage was 0.02. With G7C G19U G21C C31A A41U the self-cleavage was 0.08. Variant G7A U9A A11U U32A has a self-cleavage of 0.01. In the case of G7A G40A C45G, the self-cleavage is reported as 0.05. Variant G7C A26C C37G has a self-cleavage of 0. For G7C C18U U20G G22U, the self-cleavage was 0.04. In the case of G7A G35A U38C C45G, the self-cleavage is reported as 1.27. G7A U9G G30U gave a self-cleavage of 0.07. Variant G7C C13U G35U C45G has a self-cleavage of 0.07. In the case of G7C C15U C23A G33C C45G, the self-cleavage is reported as 0.03. Variant G7C A11U G21C G27C has a self-cleavage of 0.03. Work on G7C C8G G19U G33C yielded a self-cleavage of 0.06. G7C G21U G27A C42A showed a self-cleavage of 0.04. For G7A U9G C10A U38A A41C, the self-cleavage was 0.01. For G7C A16C C45A, the self-cleavage was 0.06. G7C A12C G35U gave a self-cleavage of 0.02. For G7C G33U C42U, the self-cleavage was 0.08. In the case of G7C G21A A25C C42A, the self-cleavage is reported as 0.09. G7C G17A G19A gave a self-cleavage of 0.07. G7A U34C G40A A41C C42A G44C gave a self-cleavage of 0.06. In the case of G7C C10A C13U G30C U43C, the self-cleavage is reported as 0.03. In the case of G7C A14C C18A G19U, the self-cleavage is reported as 0.08. Variant G7C A12C U20A has a self-cleavage of 0.01. In the case of G7C C18G A24C, the self-cleavage is reported as 0.05. G7C C13G C15U G33U U34G showed a self-cleavage of 0.15. In the case of G7C A11U G27U U28C U38A, the self-cleavage is reported as 0. In the case of G7C A26C G27A G36A, the self-cleavage is reported as 0.04. Variant G7C C13U G17U G22A A39C has a self-cleavage of 0.04. In the case of G7C C15U G29U G44A, the self-cleavage is reported as 0.07. In the case of G7C C10A A16U A41U, the self-cleavage is reported as 0. Work on G7C A25U G40U yielded a self-cleavage of 0.18. With G7A G33C G40U G44A the self-cleavage was 0.03. Work on G7C A26G A41G C42G yielded a self-cleavage of 0.02. G7A U34G U43G showed a self-cleavage of 0.01. For G7C C10U G19U, the self-cleavage was 0.01. With G7C C10U G19C the self-cleavage was 0.05. With G7C G22A G27A A39U the self-cleavage was 0.04. Variant G7C C13A C31A has a self-cleavage of 0.08. In the case of G7C C23G U28A G33U, the self-cleavage is reported as 0.02. With G7C A11C G33A the self-cleavage was 0.04. For G7C A25C C31G, the self-cleavage was 0.03. Work on G7C C15U G35U yielded a self-cleavage of 0.1. For G7C A41U U43G, the self-cleavage was 0.51. With G7C C10A C37U the self-cleavage was 0. Variant G7C G17A G30U has a self-cleavage of 0.01. Variant G7C G19U C31U C37G has a self-cleavage of 0.01. G7C C10U C18A G30U C37U gave a self-cleavage of 0.07. Work on G7A U32C G36A yielded a self-cleavage of 0.13. In the case of G7C G17U G35C U43A, the self-cleavage is reported as 0.27. With G7C C13U G21A the self-cleavage was 0.06. Work on G7C C13A C37G yielded a self-cleavage of 0.02. Work on G7C C42U G44C C45A yielded a self-cleavage of 0.02. G7C A16G C18U C23G showed a self-cleavage of 0.02. For G7C G19U U20A G22C G40A, the self-cleavage was 0.03. G7C C10A C42A gave a self-cleavage of 0.01. In the case of G7C A11U G17C A26G G33C, the self-cleavage is reported as 0.02. Variant G7C A14G U28C U43A C46U has a self-cleavage of 0.22. For G7C A11U C18A C45U C46U, the self-cleavage was 0.02. G7A U9C C13U G30C gave a self-cleavage of 0.1. With G7C G29U G33A U38A G44A the self-cleavage was 0.03. In the case of G7A U9C U28C U38C, the self-cleavage is reported as 0.02. With G7C C8A G30C G40U C42U U43G the self-cleavage was 0.13. G7C G21C G40C showed a self-cleavage of 0.1. Variant G7C A11G A16U has a self-cleavage of 0.01. Variant G7C A24C C42U has a self-cleavage of 0.1. Variant G7A G44U C46U has a self-cleavage of 0.14. For G7C A12G A14G, the self-cleavage was 0.16. With G7C C8G C13G A39U the self-cleavage was 0.05. In the case of G7C C15U A24G, the self-cleavage is reported as 0.08. Work on G7C C15U A24U yielded a self-cleavage of 0.17. With G7C C8G G35U C42U the self-cleavage was 0.1. Variant G7C G29U G36U has a self-cleavage of 0.02. In the case of G7C C18A U43C, the self-cleavage is reported as 0.04. G7A U32A G33A C45A showed a self-cleavage of 0.18. Variant G7A U9C C15U G17U C18U G19C G21C A25U G36C has a self-cleavage of 0.02. G7C A14C C31G showed a self-cleavage of 0. With G7C A14C C31U the self-cleavage was 0.03.

— the RNAGym collection of RNA variant scans (doi:10.7554/elife.90254)
